Test results taken from paper PMC4336329 (PLoS ONE, 2015).
About 2,200 (0.71%) of roughly 310,000 compounds showed an effect of 50% or more. Effects have a minus sign here. The list shows a part of the results.

molecular target: human ether-à-go-go-related gene (hERG) potassium channel (human, UniProt Q12809); assay: primary screen, population patch clamp on CHO cells stably expressing hERG
Sequence (Q12809 whole entry, looked up): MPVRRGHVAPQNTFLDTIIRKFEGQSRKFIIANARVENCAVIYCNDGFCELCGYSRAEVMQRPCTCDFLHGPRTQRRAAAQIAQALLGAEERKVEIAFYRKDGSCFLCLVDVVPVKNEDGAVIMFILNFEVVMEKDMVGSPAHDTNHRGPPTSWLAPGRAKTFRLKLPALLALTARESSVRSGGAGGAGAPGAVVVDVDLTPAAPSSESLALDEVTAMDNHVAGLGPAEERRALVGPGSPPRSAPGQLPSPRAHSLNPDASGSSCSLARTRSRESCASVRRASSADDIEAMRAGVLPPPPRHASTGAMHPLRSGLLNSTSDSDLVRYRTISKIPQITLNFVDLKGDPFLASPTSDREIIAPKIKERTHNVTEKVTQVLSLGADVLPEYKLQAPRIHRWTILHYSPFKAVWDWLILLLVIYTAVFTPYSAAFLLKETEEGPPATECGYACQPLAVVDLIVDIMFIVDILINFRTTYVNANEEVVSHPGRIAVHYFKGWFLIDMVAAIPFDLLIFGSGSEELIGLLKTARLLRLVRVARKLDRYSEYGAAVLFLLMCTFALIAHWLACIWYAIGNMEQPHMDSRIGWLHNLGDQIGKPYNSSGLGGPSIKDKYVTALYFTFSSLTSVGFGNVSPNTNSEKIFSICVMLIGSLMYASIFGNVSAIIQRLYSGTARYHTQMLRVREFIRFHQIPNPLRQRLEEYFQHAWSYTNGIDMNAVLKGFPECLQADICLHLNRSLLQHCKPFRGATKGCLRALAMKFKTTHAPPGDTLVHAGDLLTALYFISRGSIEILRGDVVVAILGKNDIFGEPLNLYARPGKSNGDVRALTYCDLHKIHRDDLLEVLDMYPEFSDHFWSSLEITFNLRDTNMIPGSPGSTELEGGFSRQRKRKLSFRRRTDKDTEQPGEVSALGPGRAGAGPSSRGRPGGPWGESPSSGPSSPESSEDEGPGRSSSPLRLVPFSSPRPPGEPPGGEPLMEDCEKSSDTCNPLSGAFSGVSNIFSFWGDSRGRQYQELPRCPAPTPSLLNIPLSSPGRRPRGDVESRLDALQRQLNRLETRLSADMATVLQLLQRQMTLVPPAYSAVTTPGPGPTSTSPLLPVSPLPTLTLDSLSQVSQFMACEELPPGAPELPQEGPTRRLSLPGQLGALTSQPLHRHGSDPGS

Structure (SMILES) | hERG current change (%, negative = inhibition) at 1uM
CCCCNC(=O)c1nn2c(C(F)(F)F)cc(-c3ccccc3)nc2c1Br | 15.2%
NS(=O)(=O)c1ccc(CCNC(=O)Cc2c[nH]c3ccccc23)cc1 | 14.2%
COc1cc(NS(=O)(=O)c2ccc(NC(=O)c3ccco3)cc2)nc(OC)n1 | 11.5%
CC(=O)Nc1ccc(Nc2nc(-c3sc(NC(C)=O)nc3C)cs2)cc1 | 20.3%
CN(CCCN1CCOCC1)C(=O)c1cc(COc2cccc(C(F)(F)F)c2)on1 | -12.3%
Cc1cccc2cc(CN(Cc3ccco3)C(c3nnnn3CCc3ccccc3)C(C)C)c(=O)[nH]c12 (stereo not drawn) | 10.9%
Cc1cccc(NC(=S)NCCSc2ccc(Cl)cc2)c1 | -0.788%
COc1ccc(-n2c(Cc3cccn3C)nnc2SCC(=O)Nc2ccccc2OC)cc1 | -4.23%
[O-]/C(=C(\C(=S)Nc1cccc2ccccc12)[n+]1ccccc1)c1cccs1 | 10.1%
Cc1ccc(-c2nc(NC(=O)CSc3nnc(C)s3)ns2)cc1 | 10.1%
C[C@]12CCC3C(CC[C@H]4CC(O)CC[C@]34C)C1CC/C2=N/O (stereo partly drawn) | 11.6%
O=C(NCc1ccccc1)c1ccc(Cl)nc1 | -0.152%
COc1cc(OC)c(-c2nc3cnccc3n2C)cc1OC | -2.52%
CC(=O)N1CCN(C(=S)NCCc2ccccc2)CC1 | 4.54%
Cc1nc2c3ccccc3[nH]c(=O)n2n1 | 0.165%
CNc1nc(C)c(C(C)(C)C)s1 | 14%
CCOc1cccc(-c2nnc3sc(COc4ccccc4)nn23)c1 | -4.64%
CCN1CCN(CCC(=O)Nc2ccc(F)c(F)c2)CC1 | 1.1%
O=C(NCc1ccccc1)c1cc(-c2cccc(O)c2)on1 | 7.37%
O=C1Nc2ccccc2C1(O)Cc1ccncc1 (stereo not drawn) | 7.04%
Cc1cccc(NCCC(=O)c2ccc(Br)cc2)c1 | 4.27%
Cc1ccc(C(=O)C(C)OC(=O)Cc2n[nH]c(=O)c3ccccc23)cc1C (stereo not drawn) | 1.2%
CCOc1ccc(S(=O)(=O)Nc2cccc(C(=O)N3CCN(c4ccccc4O)CC3)c2)cc1 | 8.62%

Structure (SMILES) | hERG current change (%, negative = inhibition) at 1uM
Cc1ccc2c(Cl)cc(Cl)c(OCc3c(C)noc3C)c2n1 | 6.65%
FC(F)(F)c1ccc(Cl)c(NC(=S)N/N=C/c2ccccc2C(F)(F)F)c1 | 8.26%
COc1ccc(CC(=O)Nc2nnc(SCc3ccccc3)s2)cc1S(=O)(=O)N1CCOCC1 | -3.56%
Cc1cccc(-n2cnc(C(=O)N3CCN(C)CC3)c2)n1 | 14.4%
CCCOc1ccc(C2c3c(oc4ccccc4c3=O)C(=O)N2CCCN2CCOCC2)cc1 (stereo not drawn) | 5.76%
CN(c1ccccc1)S(=O)(=O)c1ccc(Cl)c(C(=O)NCc2ccccc2CN2CCCC2)c1 | -14.9%
COc1ccc(-c2cc(C(=O)N3CCN(c4ccccc4O)CC3)c3ccccc3n2)cc1OC | -21.8%
CC(C)Cn1nc(NC(=O)C2CCCO2)c2cc3ccccc3nc21 (stereo not drawn) | 1.85%
COc1ccc(N2C(=O)C(CC(=O)Nc3ccc(F)cc3)N(CCc3ccc(OC)c(OC)c3)C2=O)cc1 (stereo not drawn) | 1.16%
CCOc1ccccc1OCC(=O)OCc1csc(CC(=O)Nc2ccccc2C)n1 | 6.37%
CCOC(=O)Cn1c(=O)oc2cc(S(=O)(=O)Nc3c(C)cc(C)cc3C)ccc21 | 3.4%
O=C(COC(=O)CC1CC2CCC1C2)Nc1ccc(F)cc1 (stereo not drawn) | -9.58%
CC1(C)C[C@H](O)[C@]2(CO)CC[C@]3(C)C(=CCC4[C@@]5(C)CC[C@H](O)C(C)(C)C5CC[C@]43C)[C@@H]2C1 (stereo partly drawn) | 2.57%
CCC(=O)Nc1cc(C)c(NC(=O)c2ccccc2OC)cn1 | 17%
COc1ccc(CNC(=S)Nc2ccccc2C)cc1 | 2.88%
O=C(Nc1cccc([N+](=O)[O-])c1)C1CC(=O)N(C2CCCCC2)C1 (stereo not drawn) | -1.83%
CCCn1c(C(O)c2cc(OC)c(OC)c(OC)c2)nc2ccccc21 (stereo not drawn) | 13.3%
CS(=O)(=O)N(CC(=O)N1CCN(Cc2ccccc2)CC1)c1ccccc1Br | 11.5%
CCOC(=O)C(C)Sc1nnc(Cc2cc(=O)[nH]c(=O)[nH]2)n1-c1cccc(OC)c1 (stereo not drawn) | 3.84%
CCOC(=O)c1cccc(NC(=O)c2cc(C)nn2-c2ccccc2)c1 | 8.51%
Cc1ccc2c(c1)C1CN(C)CCC1N2C(=O)c1cccc(S(=O)(=O)N2CC(C)CC(C)C2)c1.Cl (stereo not drawn) | 2.88%
CC(C)c1ccc(NC(=O)c2sccc2-n2cccc2)cc1 | 14.9%
